Consider 9 molecules from the antibiotic and cytotoxicity screens of Wong et al. (2023).

Some of the results follow.

The test system of one assay is HSkMC. Put plainly: cytotoxicity call (relative viability < 0.9). The settings on record: 10 µM.
The subject of another assay is HepG2. Put plainly: cytotoxicity call (relative viability < 0.9). The settings on record: 10 µM.
A further assay has as its system S. aureus RN4220. Put plainly: growth inhibition call (relative growth <= 0.2). The settings on record: 50 µM.

As for `CC(C)N1C[C@H](C)[C@@H](CN(C)Cc2ccccc2Cl)Oc2c(NC(=O)c3ccncc3)cccc2C1=O`, the cytotoxicity call in the assay with HSkMC and in the assay with HepG2 was “inactive” each time. Moreover, the growth inhibition call with S. aureus RN4220 is “inactive”.
As to `C=CC[C@H](CC(=O)NCCO)C(=O)NC[C@H](OC(=O)[C@@H](CC=C)CC(=O)OC(C)(C)C)c1ccccc1`, the cytotoxicity call in the assay on HSkMC and in the assay with HepG2 was “inactive” throughout. Moreover, the growth inhibition call with S. aureus RN4220 is “inactive”.
Consider `C[C@@H]1CCCCO[C@H](CN(C)Cc2ccc(C(F)(F)F)cc2)[C@H](C)CN([C@@H](C)CO)C(=O)c2cc(NS(C)(=O)=O)ccc2O1`, for which the cytotoxicity call in the assay on HSkMC and in the assay on HepG2 was “inactive” in each case. In addition, the growth inhibition call in the assay on S. aureus RN4220 was “inactive”.
For `Cc1ccc(S(=O)(=O)Nc2ccc3c(c2)CC(=O)N([C@H](C)CO)C[C@@H](C)[C@@H](CN(C)Cc2ccc(Oc4ccccc4)cc2)O3)cc1`, in the assay on HSkMC, the cytotoxicity call is “inactive”. Moreover, the cytotoxicity call in the assay with HepG2 was “active”. Besides, the growth inhibition call in the assay with S. aureus RN4220 was “inactive”.
Regarding `Nc1ncnc2c1nc(Br)n2[C@@H]1O[C@@H]2COP(=O)(O)O[C@H]2[C@H]1O`, the cytotoxicity call in the assay with HSkMC and with HepG2 was “inactive” each time. Besides, in the assay with S. aureus RN4220, the growth inhibition call is “inactive”.
As to `C[C@@H]1CN([C@@H](C)CO)C(=O)c2cc(NS(=O)(=O)c3cccs3)ccc2O[C@H]1CN(C)CC1CC1`, the cytotoxicity call in the assay on HSkMC and with HepG2 was “inactive” in each case. In addition, the growth inhibition call in the assay on S. aureus RN4220 was “inactive”.
As to `C[C@@H]1CCCCO[C@@H](CN(C)CC2CCCCC2)[C@H](C)CN([C@H](C)CO)C(=O)c2cc(NC(=O)Nc3ccc4c(c3)OCO4)ccc2O1`, the cytotoxicity call in the assay on HSkMC and in the assay on HepG2 was “inactive” throughout. Also, in the assay with S. aureus RN4220, the growth inhibition call was “inactive”.
`C/C=C/COc1nc2c(c(=O)n(C)c(=O)n2C)n1C`: the cytotoxicity call in the assay on HSkMC (human skeletal muscle cells) and in the assay with HepG2 was “inactive” each time. The growth inhibition call with S. aureus RN4220 was “inactive”.
As for `C[C@H]1CCCCO[C@H](CN(C)C(=O)Nc2cccc3ccccc23)[C@@H](C)CN([C@@H](C)CO)C(=O)c2cc(NC(=O)Nc3ccc4c(c3)OCO4)ccc2O1`, the cytotoxicity call in the assay with HSkMC and in the assay with HepG2 was “inactive” in each case. Also, the growth inhibition call with S. aureus RN4220 was “inactive”.
